In assay [1] the target is T1, biotin-labelled D5SD peptide (human).
T1 sequence (peptide, biotin (position not stated)): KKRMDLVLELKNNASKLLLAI
Put plainly: pull-down; biotin-labelled peptides immobilised on streptavidin-coated beads, incubated with cell lysates (WEHI7.2, Jurkat) for 18 h at 4°C; western blot for Lck; only the target purified.

Amino acid sequences for entries named in this document (tags omitted). A change or cut given only in a name is not applied to a line headed by its entry.
UniProt Q14643: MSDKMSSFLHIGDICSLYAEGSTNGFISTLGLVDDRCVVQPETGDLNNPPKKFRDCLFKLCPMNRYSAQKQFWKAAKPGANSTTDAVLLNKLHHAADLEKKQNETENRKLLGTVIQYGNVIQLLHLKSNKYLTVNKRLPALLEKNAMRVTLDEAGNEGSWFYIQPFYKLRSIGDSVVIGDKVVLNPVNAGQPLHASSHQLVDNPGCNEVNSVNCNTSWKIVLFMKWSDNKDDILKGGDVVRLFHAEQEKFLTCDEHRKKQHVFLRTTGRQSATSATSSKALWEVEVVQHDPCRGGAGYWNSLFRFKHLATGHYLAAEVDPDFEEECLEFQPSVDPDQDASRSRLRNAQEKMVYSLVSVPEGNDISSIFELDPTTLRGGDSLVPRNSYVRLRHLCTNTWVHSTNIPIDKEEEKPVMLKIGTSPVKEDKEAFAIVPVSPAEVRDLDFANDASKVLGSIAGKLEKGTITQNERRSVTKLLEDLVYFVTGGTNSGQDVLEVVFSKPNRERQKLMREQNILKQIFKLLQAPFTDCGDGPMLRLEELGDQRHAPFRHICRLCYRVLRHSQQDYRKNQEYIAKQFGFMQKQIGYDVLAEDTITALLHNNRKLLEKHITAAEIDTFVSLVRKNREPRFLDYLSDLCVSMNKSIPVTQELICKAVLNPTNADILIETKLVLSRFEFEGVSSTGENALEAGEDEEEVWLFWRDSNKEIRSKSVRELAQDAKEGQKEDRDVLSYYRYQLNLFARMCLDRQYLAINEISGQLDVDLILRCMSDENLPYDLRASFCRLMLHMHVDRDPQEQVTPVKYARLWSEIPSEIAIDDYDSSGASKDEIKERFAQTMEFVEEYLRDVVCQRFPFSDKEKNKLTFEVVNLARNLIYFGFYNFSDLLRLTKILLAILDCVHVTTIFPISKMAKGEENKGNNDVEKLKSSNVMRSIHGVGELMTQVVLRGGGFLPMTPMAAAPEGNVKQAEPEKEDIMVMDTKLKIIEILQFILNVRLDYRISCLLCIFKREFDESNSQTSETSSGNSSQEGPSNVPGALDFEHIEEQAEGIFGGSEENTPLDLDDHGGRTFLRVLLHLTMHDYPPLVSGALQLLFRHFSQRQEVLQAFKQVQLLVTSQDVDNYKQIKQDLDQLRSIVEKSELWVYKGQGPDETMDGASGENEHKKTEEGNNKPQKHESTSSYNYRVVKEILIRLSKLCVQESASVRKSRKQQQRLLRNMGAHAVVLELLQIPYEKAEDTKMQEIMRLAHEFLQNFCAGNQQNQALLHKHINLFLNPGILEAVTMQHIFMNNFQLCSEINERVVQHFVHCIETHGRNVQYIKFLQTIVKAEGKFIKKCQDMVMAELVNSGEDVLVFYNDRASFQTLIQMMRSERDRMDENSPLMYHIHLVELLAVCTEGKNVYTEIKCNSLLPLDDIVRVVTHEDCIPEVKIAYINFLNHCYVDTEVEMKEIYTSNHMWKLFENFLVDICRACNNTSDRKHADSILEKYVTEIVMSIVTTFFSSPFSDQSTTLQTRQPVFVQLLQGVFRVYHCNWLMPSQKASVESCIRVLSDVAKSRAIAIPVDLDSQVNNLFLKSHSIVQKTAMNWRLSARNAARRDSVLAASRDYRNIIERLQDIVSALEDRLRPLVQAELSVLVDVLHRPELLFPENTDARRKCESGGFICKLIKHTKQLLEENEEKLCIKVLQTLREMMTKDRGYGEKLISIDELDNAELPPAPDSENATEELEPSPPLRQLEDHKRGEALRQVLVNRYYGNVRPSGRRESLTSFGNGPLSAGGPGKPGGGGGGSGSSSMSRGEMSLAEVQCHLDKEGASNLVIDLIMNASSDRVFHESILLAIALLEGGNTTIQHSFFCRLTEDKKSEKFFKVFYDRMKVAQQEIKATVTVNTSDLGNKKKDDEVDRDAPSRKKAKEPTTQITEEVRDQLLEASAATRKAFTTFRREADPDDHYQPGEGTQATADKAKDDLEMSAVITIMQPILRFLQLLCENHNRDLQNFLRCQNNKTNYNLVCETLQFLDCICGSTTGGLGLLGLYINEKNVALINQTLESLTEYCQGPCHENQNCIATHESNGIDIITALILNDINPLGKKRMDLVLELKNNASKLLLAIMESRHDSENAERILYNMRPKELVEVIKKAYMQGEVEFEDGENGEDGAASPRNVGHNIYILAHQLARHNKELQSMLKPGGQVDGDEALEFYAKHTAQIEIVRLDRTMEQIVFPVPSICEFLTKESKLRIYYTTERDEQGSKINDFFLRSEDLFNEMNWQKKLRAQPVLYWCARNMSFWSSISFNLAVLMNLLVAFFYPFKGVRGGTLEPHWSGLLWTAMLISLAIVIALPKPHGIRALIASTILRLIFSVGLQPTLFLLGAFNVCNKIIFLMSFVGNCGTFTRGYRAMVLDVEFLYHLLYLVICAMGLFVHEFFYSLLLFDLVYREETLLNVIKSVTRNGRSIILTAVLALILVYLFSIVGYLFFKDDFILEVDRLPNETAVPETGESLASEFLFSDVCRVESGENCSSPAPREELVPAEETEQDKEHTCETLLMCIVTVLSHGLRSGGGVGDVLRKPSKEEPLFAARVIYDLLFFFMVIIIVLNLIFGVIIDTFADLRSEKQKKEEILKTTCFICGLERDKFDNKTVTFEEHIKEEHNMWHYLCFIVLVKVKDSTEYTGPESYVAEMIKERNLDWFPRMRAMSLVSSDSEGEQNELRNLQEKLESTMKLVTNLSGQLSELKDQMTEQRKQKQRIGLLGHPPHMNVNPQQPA
UniProt P11881: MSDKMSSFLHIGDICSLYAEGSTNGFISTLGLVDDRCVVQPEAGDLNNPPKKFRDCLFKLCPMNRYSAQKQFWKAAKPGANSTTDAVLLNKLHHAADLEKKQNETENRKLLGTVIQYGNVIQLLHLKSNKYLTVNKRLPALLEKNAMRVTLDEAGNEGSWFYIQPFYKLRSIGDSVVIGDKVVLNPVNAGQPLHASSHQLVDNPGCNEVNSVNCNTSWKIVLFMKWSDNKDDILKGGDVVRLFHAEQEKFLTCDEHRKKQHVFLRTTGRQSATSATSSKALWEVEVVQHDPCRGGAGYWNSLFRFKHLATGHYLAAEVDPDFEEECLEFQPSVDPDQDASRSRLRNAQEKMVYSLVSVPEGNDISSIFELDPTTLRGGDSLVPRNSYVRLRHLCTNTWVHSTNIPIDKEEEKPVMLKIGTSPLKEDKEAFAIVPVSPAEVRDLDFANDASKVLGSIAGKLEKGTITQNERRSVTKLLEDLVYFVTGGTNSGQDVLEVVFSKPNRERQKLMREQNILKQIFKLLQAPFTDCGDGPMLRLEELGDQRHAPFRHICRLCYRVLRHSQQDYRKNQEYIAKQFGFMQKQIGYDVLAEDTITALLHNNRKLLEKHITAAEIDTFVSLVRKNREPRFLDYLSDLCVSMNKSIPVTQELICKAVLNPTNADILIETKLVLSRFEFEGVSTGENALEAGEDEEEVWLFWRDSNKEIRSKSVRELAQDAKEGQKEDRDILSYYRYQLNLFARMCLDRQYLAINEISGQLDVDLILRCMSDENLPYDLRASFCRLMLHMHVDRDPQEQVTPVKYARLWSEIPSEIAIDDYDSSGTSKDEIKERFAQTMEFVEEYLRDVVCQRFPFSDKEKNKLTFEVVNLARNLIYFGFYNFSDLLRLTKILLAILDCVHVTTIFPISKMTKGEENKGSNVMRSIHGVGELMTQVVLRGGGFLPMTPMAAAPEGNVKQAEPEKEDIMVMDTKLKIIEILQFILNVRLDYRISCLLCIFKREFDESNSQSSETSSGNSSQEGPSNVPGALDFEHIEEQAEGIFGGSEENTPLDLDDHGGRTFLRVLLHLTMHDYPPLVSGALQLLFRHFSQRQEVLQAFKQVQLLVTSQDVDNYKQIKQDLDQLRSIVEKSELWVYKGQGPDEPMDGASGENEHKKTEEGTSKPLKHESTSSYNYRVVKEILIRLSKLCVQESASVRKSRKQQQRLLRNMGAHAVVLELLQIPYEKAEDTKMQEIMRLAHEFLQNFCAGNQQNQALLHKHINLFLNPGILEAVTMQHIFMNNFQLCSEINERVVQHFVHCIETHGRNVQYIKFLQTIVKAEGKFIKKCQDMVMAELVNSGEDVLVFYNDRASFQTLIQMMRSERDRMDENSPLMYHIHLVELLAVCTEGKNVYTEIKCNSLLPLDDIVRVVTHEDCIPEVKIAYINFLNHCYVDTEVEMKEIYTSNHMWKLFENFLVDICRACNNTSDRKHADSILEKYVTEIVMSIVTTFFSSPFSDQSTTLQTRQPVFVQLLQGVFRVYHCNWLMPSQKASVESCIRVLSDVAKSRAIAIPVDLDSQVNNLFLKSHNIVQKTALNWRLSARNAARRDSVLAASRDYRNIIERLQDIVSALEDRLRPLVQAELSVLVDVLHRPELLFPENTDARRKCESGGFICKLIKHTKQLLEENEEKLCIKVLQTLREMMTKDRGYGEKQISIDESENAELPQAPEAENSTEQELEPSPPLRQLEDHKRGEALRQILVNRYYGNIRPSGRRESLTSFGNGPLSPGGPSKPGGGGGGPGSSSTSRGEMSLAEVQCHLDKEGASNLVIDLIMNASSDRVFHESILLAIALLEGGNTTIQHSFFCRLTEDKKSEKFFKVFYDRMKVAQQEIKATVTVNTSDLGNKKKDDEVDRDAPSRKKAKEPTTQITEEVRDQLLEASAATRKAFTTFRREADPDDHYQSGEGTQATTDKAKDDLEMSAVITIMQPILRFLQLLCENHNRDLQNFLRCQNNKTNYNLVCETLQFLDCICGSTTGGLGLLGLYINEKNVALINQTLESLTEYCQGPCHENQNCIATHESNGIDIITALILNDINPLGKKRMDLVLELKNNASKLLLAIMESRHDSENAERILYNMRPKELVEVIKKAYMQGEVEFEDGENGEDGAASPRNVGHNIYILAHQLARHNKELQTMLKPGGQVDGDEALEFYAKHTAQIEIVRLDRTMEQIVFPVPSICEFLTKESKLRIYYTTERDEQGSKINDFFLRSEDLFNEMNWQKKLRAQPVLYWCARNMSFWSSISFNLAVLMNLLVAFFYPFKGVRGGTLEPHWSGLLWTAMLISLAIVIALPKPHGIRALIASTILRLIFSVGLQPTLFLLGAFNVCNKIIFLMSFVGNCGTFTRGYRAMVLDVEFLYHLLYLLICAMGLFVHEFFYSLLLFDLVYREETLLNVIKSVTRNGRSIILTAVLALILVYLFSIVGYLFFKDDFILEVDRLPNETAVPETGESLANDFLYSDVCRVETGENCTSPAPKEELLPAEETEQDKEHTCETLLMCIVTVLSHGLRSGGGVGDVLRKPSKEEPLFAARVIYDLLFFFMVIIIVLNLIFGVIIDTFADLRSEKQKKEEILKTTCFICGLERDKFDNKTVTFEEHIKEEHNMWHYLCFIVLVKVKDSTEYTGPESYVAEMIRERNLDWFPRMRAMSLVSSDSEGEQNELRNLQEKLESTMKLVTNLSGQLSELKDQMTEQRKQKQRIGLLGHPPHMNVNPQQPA
UniProt P06240: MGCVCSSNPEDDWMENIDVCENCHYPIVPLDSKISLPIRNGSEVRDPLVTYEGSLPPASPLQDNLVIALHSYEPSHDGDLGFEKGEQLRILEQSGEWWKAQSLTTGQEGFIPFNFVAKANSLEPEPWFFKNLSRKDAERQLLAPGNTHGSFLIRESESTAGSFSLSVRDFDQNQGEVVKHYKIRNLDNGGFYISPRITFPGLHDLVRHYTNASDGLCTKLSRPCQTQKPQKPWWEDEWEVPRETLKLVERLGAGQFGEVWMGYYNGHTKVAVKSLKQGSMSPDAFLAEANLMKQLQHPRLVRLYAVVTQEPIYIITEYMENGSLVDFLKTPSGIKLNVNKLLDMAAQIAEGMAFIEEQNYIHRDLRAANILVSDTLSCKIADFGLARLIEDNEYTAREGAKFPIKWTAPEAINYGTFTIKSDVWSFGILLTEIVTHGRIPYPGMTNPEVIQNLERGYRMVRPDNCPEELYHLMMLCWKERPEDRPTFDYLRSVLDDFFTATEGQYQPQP
UniProt P06239: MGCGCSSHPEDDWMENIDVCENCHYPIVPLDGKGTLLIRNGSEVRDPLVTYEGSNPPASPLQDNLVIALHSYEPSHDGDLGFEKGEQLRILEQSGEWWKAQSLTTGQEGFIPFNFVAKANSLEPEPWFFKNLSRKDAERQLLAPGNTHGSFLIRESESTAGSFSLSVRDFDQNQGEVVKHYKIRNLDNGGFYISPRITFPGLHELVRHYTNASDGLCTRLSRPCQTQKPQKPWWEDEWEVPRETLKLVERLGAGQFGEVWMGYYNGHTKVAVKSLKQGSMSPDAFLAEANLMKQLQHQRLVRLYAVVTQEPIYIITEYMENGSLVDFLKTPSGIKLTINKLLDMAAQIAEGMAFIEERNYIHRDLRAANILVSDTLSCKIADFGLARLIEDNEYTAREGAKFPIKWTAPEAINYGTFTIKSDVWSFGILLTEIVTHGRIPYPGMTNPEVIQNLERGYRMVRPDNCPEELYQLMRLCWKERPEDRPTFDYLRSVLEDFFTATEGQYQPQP

In assay [2] the target is T2, biotin-labelled control peptide.
T2 sequence (peptide, biotin (position not stated)): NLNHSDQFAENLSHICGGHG
Described as above.

Assay [3] has as its target IP3R-1, endogenous in Jurkat T cells (human (endogenous in Jurkat)) (UniProt Q14643). Put plainly: co-IP; immunoprecipitation with anti-IP3R-1 antibody from cell lysate (1% CHAPS, 50 mM Tris, 100 mM NaCl, 2 mM EDTA), protein G-agarose; western blot for Lck.
Assay [4] deals with IP3R-1, endogenous in WEHI7.2 cells (mouse (endogenous in WEHI7.2)) (UniProt P11881). Described as above.
For assay [5], the target named is T1, biotin-labelled D5SD peptide (human). Put plainly: pull-down; biotin-labelled peptide immobilised on streptavidin-coated beads, incubated with purified GST-tagged SH2-Lck for 18 h at 4°C; beads washed in TBS (25 mM Tris-HCl, 0.15 M NaCl, pH 7); beads, eluate and flow-through analysed by western blot; both purified. For orientation: A western blot detects proteins with antibodies after separation by electrophoresis.

Assay [6] concerns the target Lck, endogenous in WEHI7.2 (murine) cells (mouse (endogenous in WEHI7.2)) (UniProt P06240). Put plainly: co-IP; WEHI7.2 lysate incubated with D5SD peptide for 1 h at 4°C before immunoprecipitation with anti-IP3R-1 antibody; loss of co-precipitated Lck; only the binder purified.

Results are given in words; binding and its absence hold for the method and conditions named. For some assays here: In cells and extracts the contact can be indirect. Some entries that bind do so weakly or less than the wild type.

The results in this text go back to PMC10569261.

With “Lck, endogenous in Jurkat (human) cells (from UniProt P06239 1-509)”, the binding result in assay [1] is “binds”; in assay [2], “no binding”; in assay [3], “binds”.

Regarding “Lck, endogenous in WEHI7.2 (murine) cells (from UniProt P06240 1-509)”, the binding result is reported as “binds” in assay [1], “no binding” in assay [2] and “binds” in assay [4].

“purified GST-tagged SH2 domain from Lck (from UniProt P06239 127-224) (domain or fragment)”: the binding entry in assay [5] is listed as “binds”.

As for KKRMDLVLELKNNASKLLLAI [D5SD peptide], in assay [6], the binding result is recorded as “binds”.
